# Over roughly 33,000 sequences, “E-score (-0.5 to 0.5)” has its median near -0.035; the highest 2% begin near 0.35. This is one part of the list.
# Molecular target: T1, Pdr3 (UniProt P33200)
# T1 sequence: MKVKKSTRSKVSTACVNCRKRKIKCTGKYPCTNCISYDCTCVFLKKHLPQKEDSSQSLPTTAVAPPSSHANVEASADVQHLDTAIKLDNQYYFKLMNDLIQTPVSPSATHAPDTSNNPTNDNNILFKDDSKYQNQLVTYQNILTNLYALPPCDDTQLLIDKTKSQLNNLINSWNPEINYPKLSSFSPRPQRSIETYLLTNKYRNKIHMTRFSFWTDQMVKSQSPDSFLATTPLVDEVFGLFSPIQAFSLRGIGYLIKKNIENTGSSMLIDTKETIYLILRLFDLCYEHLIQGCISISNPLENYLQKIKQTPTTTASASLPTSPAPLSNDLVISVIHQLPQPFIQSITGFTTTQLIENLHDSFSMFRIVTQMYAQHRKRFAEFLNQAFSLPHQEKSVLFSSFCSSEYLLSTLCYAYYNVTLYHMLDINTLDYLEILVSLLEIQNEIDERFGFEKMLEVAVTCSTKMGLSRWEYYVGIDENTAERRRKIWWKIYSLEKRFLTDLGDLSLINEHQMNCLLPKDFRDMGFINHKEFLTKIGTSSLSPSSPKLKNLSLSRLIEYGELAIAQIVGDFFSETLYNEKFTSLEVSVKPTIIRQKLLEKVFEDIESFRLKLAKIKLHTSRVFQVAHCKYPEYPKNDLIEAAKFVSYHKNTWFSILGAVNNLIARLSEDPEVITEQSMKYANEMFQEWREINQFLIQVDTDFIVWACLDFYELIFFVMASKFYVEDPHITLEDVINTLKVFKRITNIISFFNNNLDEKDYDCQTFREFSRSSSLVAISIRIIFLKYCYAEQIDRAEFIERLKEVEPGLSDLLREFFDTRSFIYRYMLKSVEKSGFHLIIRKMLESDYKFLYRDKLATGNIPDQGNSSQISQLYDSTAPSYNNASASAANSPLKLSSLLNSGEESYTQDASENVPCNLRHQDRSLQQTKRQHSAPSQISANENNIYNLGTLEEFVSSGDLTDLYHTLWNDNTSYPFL
# Assay: PBM E-score (8-mer binding enrichment) (E-score (-0.5 to 0.5)); higher = stronger / more preferred TF binding; most listed sequences are background and not binding sites
# Conditions: protein concentration: 200 nM; construct: GST-full length
# How it was run: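 Universal all-10-mer Agilent arrays, double-stranded by primer extension on fresh or once-stripped slides, were probed with about 100-200 nM GST-tagged yeast transcription factors made by PURExpress. Fluorescent anti-GST detected bound protein, and masliner normalised the scans. E-scores from the Universal PBM Analysis Suite were given to each ungapped eight-base word pooled with its reverse complement.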
row,Sequence,PBM E-score
1,CTTAGTTA,-0.0476
2,ACAGTCGG,0.0252
3,TAACACGA,0.0333
4,AGTCCTAA,-0.183
5,ACTCTGTG,-0.153
6,CCACATCA,-0.0319
7,ATGGATTC,0.0503
8,AACCCCGG,0.312
9,ACCCCTGA,-0.0444
10,AAGGTCAT,-0.149
11,CGGTGCCC,0.104
12,AATTGAGT,0.0708
13,AAAAAAGT,-0.04
14,CTGTAACA,-0.281
15,ACTATCGG,0.147
16,CAATGTCA,-0.0363
17,CTTCCGTA,0.379
18,ACGTAATC,-0.0988
19,TCACGGCA,0.193
20,CCGAGGCG,0.23
21,GCGGAAGC,0.347
22,AGTTGGCA,-0.0295
23,ACTTCACT,0.027
24,AATAAGGA,-0.256
25,ATTTAAAG,0.19

row,Sequence,PBM E-score
1,GCAATGAA,0.00457
2,GTGATAGA,-0.148
3,CATTCCAC,0.0732
4,CTGCTCAA,-0.197
5,AACCATAG,0.0469
6,GGCAAGCA,-0.179
7,ACTGTGAC,-0.0328
8,GGCTTAGA,-0.321
9,AACTCCAG,-0.12
10,CTGGGACC,-0.197
11,CCGCGATC,0.194
12,TATTTCCA,0.0517
13,CGGAGCCC,0.208
14,AGAAGACA,-0.219
15,AGGAGAGC,-0.326
16,CTATAGCA,-0.0675
17,AAGCGTTG,-0.12
18,ACCGTGAC,-0.0489
19,ACTTGACC,-0.154
20,CGTGGTAC,-0.143
21,AAAAATGG,0.0817
22,TCCATACA,-0.0458
23,ATACAGTA,-0.085
24,CCGGGCAG,0.316
25,CAGCCGCG,0.337

row,Sequence,PBM E-score
1,GAATGGCC,0.225
2,CTCCGGTC,0.328
3,CATCGAGC,0.0426
4,CAGTCGTC,-0.3
5,CCTCCTGA,-0.262
6,GGCTCACA,-0.0875
7,GACACGTA,-0.284
8,CAGCGTAG,-0.0303
9,CATGTCGG,0.191
10,AAGGACCG,0.0679
11,AGCGTCTC,-0.00572
12,CATTCAAG,-0.123
13,CTACTTAA,-0.268
14,CCTCCGTA,0.222
15,AGTCCTAG,-0.325
16,GAGTATGC,0.0203
17,GCACCCAA,0.132
18,ATGGGTTG,0.113
19,CTAAGCAG,-0.113
20,TCAATCCA,0.00934
21,GCGATCAA,-0.0789
22,GTCATGTA,-0.145
23,GATTGGCA,-0.0565
24,ACGAGCCT,-0.285
25,CTACCCTC,-0.121

row,Sequence,PBM E-score
1,ACCAGCAA,0.0732
2,AGCTAGAC,-0.103
3,CGTAGGCC,-0.142
4,GCCCTCGA,-0.315
5,AGCGTATC,-0.057
6,GGACTTAC,0.00247
7,ATGAGATA,0.0428
8,CCCGTCTC,0.0507
9,TCCGAGGA,0.354
10,CCGGTCCG,0.414
11,CCAGCAAC,-0.00856
12,CGGATTTA,0.281
13,AGAGGCAT,0.0819
14,AGACATAC,-0.058
15,ACTCCGGC,0.315
16,GATGCTAA,0.128
17,AAGCATAA,-0.107
18,GACAACTA,0.0917
19,ATCGTAGC,-0.143
20,AAAGAGAC,-0.0306
21,ATGCATCG,0.193
22,AGCGTCCG,0.0784
23,AGTGTGAA,-0.0237
24,GAATGTTA,0.178
25,AATTTAGG,0.0463

row,Sequence,PBM E-score
1,ACGGCGAC,0.182
2,GGTCCGAA,0.319
3,ACACCAAC,-0.201
4,GCGGAACC,0.482
5,ACGCTACA,-0.0745
6,TCACAGGA,-0.113
7,CCATCTTC,-0.014
8,TACATATA,0.0592
9,AGACTAGA,-0.266
10,TGTTGTAA,-0.00547
11,GTTTGTTA,-0.1
12,AAACTGCG,-0.129
13,ATGCGCGG,0.355
14,ATTGATCG,0.114
15,ATGGCAGA,0.0132
16,ATGATGCG,0.079
17,CCGCGCCG,0.353
18,CCCGAGTC,0.165
19,CAACGTGA,-0.19
20,CACACCAC,0.0393
21,AATCCTTC,-0.114
22,TACGTTCA,-0.255
23,AGGGGGGC,-0.222
24,GAAGCGGC,-0.108
25,AACTAGCC,-0.0913

row,Sequence,PBM E-score
1,GACGTGAA,-0.0437
2,ACAGCAAG,0.0325
3,ACGGCCCC,-0.241
4,CTAGTCGC,-0.228
5,CAGGAACA,-0.0115
6,CTAGACAA,-0.152
7,CCTTGCCC,0.155
8,AGCCAAGG,-0.152
9,AAAACTTA,-0.0367
10,TCCGTCAA,0.375
11,ATAACTTG,-0.0945
12,ATTTACAA,-0.16
13,AATTTCAG,-0.074
14,AATAACCG,0.0168
15,CAAAAAAA,0.211
16,CATCAGCG,0.0028
17,TATATGGA,-0.0393
18,ACGTGTTC,-0.0582
19,TACGCTAA,-0.197
20,AGTTCCAC,-0.00065
21,ATCCAAAC,0.0577
22,CGGCGCGC,0.245
23,AACCAGCC,0.104
24,AGATTCAC,-0.123
25,CCAAGTGG,-0.00255

row,Sequence,PBM E-score
1,TATATTCA,0.121
2,GTATTGCA,-0.0564
3,CCCGATAA,0.123
4,TCTGTGAA,-0.0705
5,CAGTTATA,0.0428
6,TAGTACCA,-0.112
7,CGCTCGGA,0.359
8,AACCCCTC,-0.12
9,CCGTAGAC,0.0889
10,ACCTTCCT,-0.244
11,CAATAACG,0.0557
12,CCCTCTAA,-0.272
13,CAACTCGC,0.0348
14,ATAGCGAA,-0.113
15,GTCACAGA,-0.0547
16,CACGTACG,-0.2
17,AGACGGTC,-0.207
18,TGAGAGAA,-0.168
19,CTTATTTA,-0.17
20,TAGGCCGA,0.043
21,CAACATGC,-0.0624
22,CTGTTTTA,-0.0295

# Source: the supplement of paper PMC3334620
